T1: RBFOX1 RRM RbFoxmut (Fox-RRM*) (Homo sapiens, UniProt Q9NWB1 109-208, R118D;E147R;N151S;E152T)
T1 sequence: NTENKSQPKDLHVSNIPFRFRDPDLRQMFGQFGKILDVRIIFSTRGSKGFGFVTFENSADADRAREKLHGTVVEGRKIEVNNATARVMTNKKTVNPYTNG

B1: UGGCGUG (DNA:RNA)
RNA: GGGAGACCGGAAUUCAGAUUGUCCUGGCGUGUUAAAUCCCGUCGUAGCCACCA
DNA 1: CAATCTGAATTCCGGTCTCCC
DNA 2: TGGTGGCTACGACGGGATT
B2: UCUUCGG (DNA:RNA)
RNA: B1 RNA with G26C, G27U, C28U, G29C, U30G
DNA 1: CAATCTGAATTCCGGTCTCCC
DNA 2: TGGTGGCTACGACGGGATT
B3: CUCUAGC (DNA:RNA)
RNA: GGGAGACCGGAAUUCAGAUUGUCCCUCUAGCUUAAAUCCCGUCGUAGCCACCA
DNA 1: CAATCTGAATTCCGGTCTCCC
DNA 2: TGGTGGCTACGACGGGATT
B4: CGCCAUC (DNA:RNA)
RNA: B3 RNA with U26G, U28C, G30U
DNA 1: CAATCTGAATTCCGGTCTCCC
DNA 2: TGGTGGCTACGACGGGATT
B5: AGUCGAA (DNA:RNA)
RNA: B1 RNA with U25A, G27U, U30A, G31A
DNA 1: CAATCTGAATTCCGGTCTCCC
DNA 2: TGGTGGCTACGACGGGATT
B6: AAGGUCU (DNA:RNA)
RNA: B1 RNA with U25A, G26A, C28G, G29U, U30C, G31U
DNA 1: CAATCTGAATTCCGGTCTCCC
DNA 2: TGGTGGCTACGACGGGATT
B7: UUUAUCU (DNA:RNA)
RNA: B3 RNA with C25U, C27U, U28A, A29U, G30C, C31U
DNA 1: CAATCTGAATTCCGGTCTCCC
DNA 2: TGGTGGCTACGACGGGATT
B8: UGAGACA (DNA:RNA)
RNA: B1 RNA with G27A, C28G, G29A, U30C, G31A
DNA 1: CAATCTGAATTCCGGTCTCCC
DNA 2: TGGTGGCTACGACGGGATT
B9: AUUCUGA (DNA:RNA)
RNA: B3 RNA with C25A, C27U, U28C, A29U, C31A
DNA 1: CAATCTGAATTCCGGTCTCCC
DNA 2: TGGTGGCTACGACGGGATT
B10: UAGGACC (DNA:RNA)
RNA: B3 RNA with C25U, U26A, C27G, U28G, G30C
DNA 1: CAATCTGAATTCCGGTCTCCC
DNA 2: TGGTGGCTACGACGGGATT
B11: CCUUGAG (DNA:RNA)
RNA: B3 RNA with U26C, C27U, A29G, G30A, C31G
DNA 1: CAATCTGAATTCCGGTCTCCC
DNA 2: TGGTGGCTACGACGGGATT
B12: GGGGCAG (DNA:RNA)
RNA: B1 RNA with U25G, C28G, G29C, U30A
DNA 1: CAATCTGAATTCCGGTCTCCC
DNA 2: TGGTGGCTACGACGGGATT
B13: ACUCAGC (DNA:RNA)
RNA: B3 RNA with C25A, U26C, C27U, U28C
DNA 1: CAATCTGAATTCCGGTCTCCC
DNA 2: TGGTGGCTACGACGGGATT
B14: UAGCCGA (DNA:RNA)
RNA: B1 RNA with G26A, G29C, U30G, G31A
DNA 1: CAATCTGAATTCCGGTCTCCC
DNA 2: TGGTGGCTACGACGGGATT
B15: GCUCAAC (DNA:RNA)
RNA: B3 RNA with C25G, U26C, C27U, U28C, G30A
DNA 1: CAATCTGAATTCCGGTCTCCC
DNA 2: TGGTGGCTACGACGGGATT
B16: UAGACAG (DNA:RNA)
RNA: B1 RNA with G26A, C28A, G29C, U30A
DNA 1: CAATCTGAATTCCGGTCTCCC
DNA 2: TGGTGGCTACGACGGGATT
B17: CGCGAGG (DNA:RNA)
RNA: B3 RNA with U26G, U28G, C31G
DNA 1: CAATCTGAATTCCGGTCTCCC
DNA 2: TGGTGGCTACGACGGGATT
B18: GGUAAAU (DNA:RNA)
RNA: B3 RNA with C25G, U26G, C27U, U28A, G30A, C31U
DNA 1: CAATCTGAATTCCGGTCTCCC
DNA 2: TGGTGGCTACGACGGGATT
B19: CGCGUGA (DNA:RNA)
RNA: B3 RNA with U26G, U28G, A29U, C31A
DNA 1: CAATCTGAATTCCGGTCTCCC
DNA 2: TGGTGGCTACGACGGGATT
B20: GUGCGUU (DNA:RNA)
RNA: B1 RNA with U25G, G26U, G31U
DNA 1: CAATCTGAATTCCGGTCTCCC
DNA 2: TGGTGGCTACGACGGGATT
B21: UCAAUAU (DNA:RNA)
RNA: B1 RNA with G26C, G27A, C28A, G29U, U30A, G31U
DNA 1: CAATCTGAATTCCGGTCTCCC
DNA 2: TGGTGGCTACGACGGGATT
B22: AGUGGAC (DNA:RNA)
RNA: B1 RNA with U25A, G27U, C28G, U30A, G31C
DNA 1: CAATCTGAATTCCGGTCTCCC
DNA 2: TGGTGGCTACGACGGGATT
B23: GAUGGUC (DNA:RNA)
RNA: B1 RNA with U25G, G26A, G27U, C28G, G31C
DNA 1: CAATCTGAATTCCGGTCTCCC
DNA 2: TGGTGGCTACGACGGGATT
B24: UGGCUGC (DNA:RNA)
RNA: B1 RNA with G29U, U30G, G31C
DNA 1: CAATCTGAATTCCGGTCTCCC
DNA 2: TGGTGGCTACGACGGGATT
B25: GCCCCUU (DNA:RNA)
RNA: B1 RNA with U25G, G26C, G27C, G29C, G31U
DNA 1: CAATCTGAATTCCGGTCTCCC
DNA 2: TGGTGGCTACGACGGGATT
B26: CGGGCUU (DNA:RNA)
RNA: B1 RNA with U25C, C28G, G29C, G31U
DNA 1: CAATCTGAATTCCGGTCTCCC
DNA 2: TGGTGGCTACGACGGGATT
B27: CUGCAAG (DNA:RNA)
RNA: B3 RNA with C27G, U28C, G30A, C31G
DNA 1: CAATCTGAATTCCGGTCTCCC
DNA 2: TGGTGGCTACGACGGGATT
B28: GCCGUCU (DNA:RNA)
RNA: B3 RNA with C25G, U26C, U28G, A29U, G30C, C31U
DNA 1: CAATCTGAATTCCGGTCTCCC
DNA 2: TGGTGGCTACGACGGGATT
B29: UGGCGAC (DNA:RNA)
RNA: B1 RNA with U30A, G31C
DNA 1: CAATCTGAATTCCGGTCTCCC
DNA 2: TGGTGGCTACGACGGGATT
B30: AAUGGAA (DNA:RNA)
RNA: B1 RNA with U25A, G26A, G27U, C28G, U30A, G31A
DNA 1: CAATCTGAATTCCGGTCTCCC
DNA 2: TGGTGGCTACGACGGGATT
B31: CCUUUGA (DNA:RNA)
RNA: B3 RNA with U26C, C27U, A29U, C31A
DNA 1: CAATCTGAATTCCGGTCTCCC
DNA 2: TGGTGGCTACGACGGGATT

Numbering of substitutions follows the chain as printed; changes in the protein carry UniProt numbers. This is one part of the list.

The assay has as its target T1, RBFOX1 RRM RbFoxmut (Fox-RRM*). The experiment in a line: EMSA; HiTS-Eq, 1 nM pool, 10 min; buffer printed only for the single-RNA assays: 10 mM Tris pH 7.5, 150 mM NaCl, 3.4 mM EDTA, 0.001% NP-40, 30 C. The settings on record: tags: His6 N-terminal (pET28a); label: 5' 32P. The gist of the method:
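Relative association constants, normalised to the cognate motif, were derived by comparing read counts of each RNA species with those of the control reaction. The RNA sequenced was the free fraction, separated by 8% native PAGE after a 10 min equilibration in 50 µL of 1 nM 5′-radiolabelled RNA (7 randomized nucleotides) with increasing concentrations of purified wild-type or mutant RbFox RRM.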
(Mobility shift assays separate free from complexed probe on a gel.)
Regarding B1, the binding signal is 0.321 KA relative to UGCAUGU.
As for B2, the binding signal was 0.0899 KA relative to UGCAUGU.
Turning to B3, the binding signal is 0.0925 KA relative to UGCAUGU.
Regarding B4, the binding signal was 0.0812 KA relative to UGCAUGU.
Consider B5, for which the binding signal is 0.0915 KA relative to UGCAUGU.
The same measure for B6: 0.0715 KA relative to UGCAUGU; for B7: 0.0759 KA relative to UGCAUGU; for B8: 0.0773 KA relative to UGCAUGU.
Turning to B9, the binding signal is 0.0695 KA relative to UGCAUGU.
Turning to B10, the binding signal is 0.0753 KA relative to UGCAUGU.
The figure for B11 is 0.121 KA relative to UGCAUGU.
The figure for B12 is 0.116 KA relative to UGCAUGU.
With B13, the binding signal was 0.0993 KA relative to UGCAUGU.
Turning to B14, the binding signal was 0.0645 KA relative to UGCAUGU.
For the molecule B15, the binding signal was 0.0746 KA relative to UGCAUGU.
The figure for B16 is 0.0408 KA relative to UGCAUGU.
The same measure for B17: 0.108 KA relative to UGCAUGU; for B18: 0.0579 KA relative to UGCAUGU; for B19: 0.112 KA relative to UGCAUGU.
The figure for B20 is 0.146 KA relative to UGCAUGU; for B21 it is 0.0958 KA relative to UGCAUGU; for B22 it is 0.0881 KA relative to UGCAUGU.
Turning to B23, the binding signal was 0.166 KA relative to UGCAUGU.
The same measure for B24: 0.194 KA relative to UGCAUGU; for B25: 0.0605 KA relative to UGCAUGU; for B26: 0.0788 KA relative to UGCAUGU.
The same measure for B27: 0.0851 KA relative to UGCAUGU; for B28: 0.0615 KA relative to UGCAUGU.
The same measure for B29: 0.0748 KA relative to UGCAUGU; for B30: 0.11 KA relative to UGCAUGU; for B31: 0.0835 KA relative to UGCAUGU.

The record behind these values is PMC9911399, “Two distinct binding modes provide the RNA-binding protein RbFox with extraordinary sequence specificity”.
